Results as given in the supplement of paper PMC10126150.
Values marked as one replicate rest on one cluster of the flow cell; about a third of the high ones do not repeat.

Tested on: ATP
Test: switch fluorescence ratio, 500 uM ATP over buffer (Cy3 cluster intensity, sum of 5 cycles each) (fold (ratio)); higher = stronger signal-on switching upon ATP binding; sequences stand for … in TCGTCGGCAGCGTCAGATGTGTATAAGAGACAGTTTTTTTTTTTTTTTTTTTTTTTTT…TC
Conditions: aptamer strand: ATP DNA aptamer (quencher-CACCTGGGGGAGTATTGCGGAGGAAGG + anchor), 100 nM annealed; ATP concentration: 500 uM; one replicate
Outline: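 The quencher-labelled ATP aptamer, at 100 nM, was annealed to Cy3-labelled switching-strand clusters on a modified Illumina MiSeq flow-cell. The clusters were imaged in selection buffer, then after 15 min with 500 uM ATP at 22 °C, and this buffer/ATP cycle ran five times with NaOH stripping and re-annealing between runs. Per-cluster fluorescence ratios, summed target-cycle over summed buffer-cycle Cy3 intensity, were averaged per switch-domain sequence. Clusters outside 100-1000 RFU were excluded.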
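Note: ATP exposure 15 min at 22 °C before imaging.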

Sequence | switch fluorescence ratio
ACTCGGGACA | 1.09
AACCGGACAG | 1.15
TAGGTTAGAA | 1.02
ACTCTGATGT | 1.05
TATCCTACTG | 1
GACTGACTCA | 1.14
ACCAAACGTA | 1.11
TATATCTTAC | 1.08
ACCGAAATAT | 2.51
TGAAGTTCGT | 0.997
CCCACCAGTA | 1.08
TACGGGTTTA | 0.98
TCTGTCACTC | 1.01
CGAGCTGACA | 1.05
AACCGATCTA | 1.01
ATCGGACTCG | 1.02
ACGGGGTAGC | 0.988
TAAACGTTTA | 1.01
ATACCATGAA | 0.955
AATATCCACG | 1.03
TTTATCCCGT | 0.998
TATAGTGATT | 1.04
ATTTACGTTC | 1.03

Sequence | switch fluorescence ratio
CTGTCCATAG | 1.05
ATGGACGAGA | 1.03
TTGTAGGTGG | 1
GCACAGAGGA | 1.11
AGATCGGTAC | 1.02
GACAAATTAT | 1.06
GTACGCATGG | 1.6
AGCGTTCCCG | 0.977
TCTGCAACTG | 1.24
TAAGTCTAGG | 1
TTAAAGTTAC | 1.08
TGTGAGGCAT | 1.07
CAAGTATAAG | 0.961
TGAAGGGAT | 1
CAGAAGGGT | 0.984
CTCATCTTGT | 1.03
GACGGGGTAT | 1.18
CGACTCGGAG | 1.05
AGGTCGAGAC | 0.974
CAAATGTGT | 0.965
ATTGTCTGTT | 0.977
CAATGCAGGT | 0.98
AATCTGTTTC | 0.966

Sequence | switch fluorescence ratio
TGCAAATGAC | 1.14
GCTAATAGAG | 0.981
GATTTGATAT | 0.998
GGCTACCACG | 1.08
TCGAACACCA | 1.05
TGCGATGGCG | 0.994
CAGATGGGCG | 0.993
GACTATAGG | 0.982
GCGGACCTGC | 1.03
GTTGCAGAGC | 1.12
AGACCAAGAA | 1.01
GGAATCTGGT | 1
CACAAGCGGC | 1.06
TCTGAGGAGG | 1.01
CTAGAACAGC | 0.998
AGGTGACCAC | 1.04
GACTTGGGGG | 1.02
GTGACCGGAT | 1.07
AGCGGATAGG | 1.06
ACATTCTCG | 1.02
CAGAAGGCGG | 1
TGGTACTCCG | 1.05
CCTTCATGGT | 0.996

Sequence | switch fluorescence ratio
ATAACGCGTA | 0.997
GGCAAATTTA | 1.01
TGATTAACCC | 1.02
AAGATGTGGG | 1.04
GCGAGTATAA | 0.994
GGGAATGGTT | 1
TAGACGGTGG | 1.08
CTGTAGAGTC | 1.04
CAGTTCGCAG | 1.16
TGTGGACGCC | 0.984
GCCTGGGA | 0.966
CATTCGTTGG | 0.988
CTTTAGGCT | 0.95
TAGACTTG | 0.905
CCTTCGGGTA | 1.55
TCTTTTCCAG | 1.05
GCAATGTTAA | 1.05
TTTGCTCCAT | 1.21
ATTTGACAAG | 1.05
TGGGTCCCGA | 1.01
TCTGCGGTGG | 1.39
ACGCGATCTC | 2.08
GGCCTTGATC | 1.02

Sequence | switch fluorescence ratio
CGAGTCTCGG | 1.06
CGAGGGTTGT | 0.961
ACTATCCTTT | 0.97
GATGATTTAA | 0.958
GGCATACTTG | 1.02
TAGATGTTAG | 0.998
TTGTTTTAG | 0.972
AATTGGACGG | 0.966
CATCGGAGCT | 1.08
TGTTTTTCAA | 0.973
GACCCATATG | 1.04
TACATCACAC | 1.31
TGCGAGGCCT | 1
AGATTTACAT | 1.02
TGAGGGGCTG | 0.984
GTTGAGGCAC | 1.01
TATACGCGCT | 0.991
TTATTGCTTG | 0.993
TGGCTCGCAA | 3.42
AGAGGGTG | 1.08
TTAAGACGAT | 0.98
TGCCTGAAGG | 0.975
ATCTGTACGT | 0.948

Sequence | switch fluorescence ratio
GGATTGAGTG | 1
AGATAGAGGA | 0.949
GACAATTTAG | 0.994
CAGTCACGGG | 1.02
CAACTTATCC | 1.08
CGTATAGCAA | 3.42
TCTTACCCGG | 1.01
CGTGACATA | 1.01
AAATCTTGAT | 1
CTCTCAGCCG | 0.972
GAAAAACCGT | 0.96
AAAGATTGTA | 0.941
TGGCGAAAGT | 0.991
GCGACAGGTG | 2.13
GGGATATATA | 1.07
CGCTCTGCGG | 1.07
TTGGTTCAG | 0.98
AGTTAGTGC | 1.03
CATTCGTTTT | 0.962
GCTATCATGT | 0.976
CCAAGTCCCT | 0.988
GCCTACCTAC | 1.72
ACCCAGCTTT | 1.03

Sequence | switch fluorescence ratio
GGTACAGTTG | 0.974
TCACGGTCAA | 1.14
CTCCCGTGCT | 1.24
TGGGTCACGT | 0.981
TTCTCTGCCG | 1.11
GTGTATTGAT | 0.956
CTTGAGTCCT | 0.976
ACAGTGTG | 1
ATCTTCCATG | 1.46
AGAGAGCGGC | 1.32
ACATGTAACA | 1.01
CTGAGTGATT | 1.05
AACCCTAGCT | 1.05
TCTGCCTCGT | 1.01
CATTTTTTGC | 1.01
GCCTTAAATC | 1.01
AATCCTGGCT | 1.02
GCAACGACC | 1.99
CTTTTATTAC | 1.08
